Some of the results follow. Most values come without repeats; read them as rough.
system: MZ2-MEL; experiment: cell count relative to DMSO control; melanoma cells; higher = more viable cells; conditions: library dose: low library concentration; 72 h
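Also: cell number obtained by counting DAPI-stained nuclei in high-throughput microscope images with image analysis software, screen run in 1,536-well plates.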

| SMILES | cell count [%] |
| --- | --- |
| C[C@]1(O)C[C@@H](c2nc(-c3ccc4ccc(-c5ccccc5)nc4c3)c3c(N)nccn32)C1 + CN(NC(=O)CC(=O)NN(C)C(=S)c1ccccc1)C(=S)c1ccccc1 [STA4783] (first compound 0.4 µM, partner dose 0.006 µM) | 88.8 |
| C[C@]1(O)C[C@@H](c2nc(-c3ccc4ccc(-c5ccccc5)nc4c3)c3c(N)nccn32)C1 + NCC(=O)Nc1ccc(-n2nc(C(F)(F)F)cc2-c2ccc3c(ccc4ccccc43)c2)cc1 [OSU03012] (first compound 0.4 µM, partner dose 1 µM) | 88.1 |
| CCN(CC)CCNC(=O)c1c(C)[nH]c(/C=C2\C(=O)Nc3ccc(F)cc32)c1C [sunitinib] + Oc1nc(-c2ccc(C(F)(F)F)cc2)nc2c1CSCC2 [XAV939] (first compound 0.4 µM, partner dose 2 µM) | 102 |
| C[C@]1(O)C[C@@H](c2nc(-c3ccc4ccc(-c5ccccc5)nc4c3)c3c(N)nccn32)C1 + CC(C)CCN1c2nc(Nc3cc(F)c(O)c(F)c3)ncc2N(C)C(=O)C1C [BID1870] (first compound 0.4 µM, partner dose 0.2 µM) | 93.8 |
| CCN(CC)CCNC(=O)c1c(C)[nH]c(/C=C2\C(=O)Nc3ccc(F)cc32)c1C [sunitinib] + COc1cc(N2CCC(N3CCN(C)CC3)CC2)ccc1Nc1ncc(Cl)c(Nc2ccccc2S(=O)(=O)C(C)C)n1 [NVP-TAE684] (first compound 0.4 µM, partner dose 0.08 µM) | 111 |
| CCN(CC)CCNC(=O)c1c(C)[nH]c(/C=C2\C(=O)Nc3ccc(F)cc32)c1C [sunitinib] + CCc1ccc(CCOc2ccc(CC3SC(=O)NC3=O)cc2)nc1 [pioglitazone] (first compound 0.4 µM, partner dose 2 µM) | 111 |
| C[C@]1(O)C[C@@H](c2nc(-c3ccc4ccc(-c5ccccc5)nc4c3)c3c(N)nccn32)C1 + NC(=O)Nc1cc(-c2cccc(F)c2)sc1C(=O)N[C@H]1CCCNC1 [AZD7762] (first compound 0.4 µM, partner dose 0.02 µM) | 91.5 |
| C[C@]1(O)C[C@@H](c2nc(-c3ccc4ccc(-c5ccccc5)nc4c3)c3c(N)nccn32)C1 + c1cc(-c2cnn3cc(-c4ccc(OCCN5CCCCC5)cc4)cnc23)ccn1 [Dorsomorphin] (first compound 0.4 µM, partner dose 0.4 µM) | 92 |
| COc1cc([C@@H]2c3cc4c(cc3[C@@H](O[C@@H]3O[C@@H]5CO[C@@H](C)O[C@H]5[C@H](O)[C@H]3O)[C@H]3COC(=O)[C@H]23)OCO4)cc(OC)c1O [etoposide] + COc1cc(N2CCC(N3CCN(C)CC3)CC2)ccc1Nc1ncc(Cl)c(Nc2ccccc2S(=O)(=O)C(C)C)n1 [NVP-TAE684] (first compound 0.02 µM, partner dose 0.08 µM) | 97.9 |
| CCN(CC)CCNC(=O)c1c(C)[nH]c(/C=C2\C(=O)Nc3ccc(F)cc32)c1C [sunitinib] + CCCCCCCCCCCC1=C(O)C(=O)C=C(O)C1=O [Embelin] (first compound 0.4 µM, partner dose 1.2 µM) | 106 |
| Cn1cnc2c(F)c(Nc3ccc(Br)cc3Cl)c(C(=O)NOCCO)cc21 [selumetinib] + CO[C@@H]1[C@H](N(C)C(=O)c2ccccc2)C[C@H]2O[C@]1(C)n1c3ccccc3c3c4c(c5c6ccccc6n2c5c31)C(=O)NC4 [Midostaurin] (first compound 0.015 µM, partner dose 0.08 µM) | 87.2 |
| COc1cc([C@@H]2c3cc4c(cc3[C@@H](O[C@@H]3O[C@@H]5CO[C@@H](C)O[C@H]5[C@H](O)[C@H]3O)[C@H]3COC(=O)[C@H]23)OCO4)cc(OC)c1O [etoposide] + NC(=O)Nc1cc(-c2cccc(F)c2)sc1C(=O)N[C@H]1CCCNC1 [AZD7762] (first compound 0.02 µM, partner dose 0.02 µM) | 106 |
| Cn1cnc2c(F)c(Nc3ccc(Br)cc3Cl)c(C(=O)NOCCO)cc21 [selumetinib] + Oc1nc(-c2ccc(C(F)(F)F)cc2)nc2c1CSCC2 [XAV939] (first compound 0.015 µM, partner dose 2 µM) | 95.7 |
| CCN(CC)CCNC(=O)c1c(C)[nH]c(/C=C2\C(=O)Nc3ccc(F)cc32)c1C [sunitinib] + NC(=O)Nc1cc(-c2cccc(F)c2)sc1C(=O)N[C@H]1CCCNC1 [AZD7762] (first compound 0.4 µM, partner dose 0.02 µM) | 118 |
| C[C@]1(O)C[C@@H](c2nc(-c3ccc4ccc(-c5ccccc5)nc4c3)c3c(N)nccn32)C1 + O=S(=O)(c1ccccc1)N(CC(F)(F)F)c1ccc(C(O)(C(F)(F)F)C(F)(F)F)cc1 [T0901317] (first compound 0.4 µM, partner dose 1.4 µM) | 111 |
| CCN(CC)CCNC(=O)c1c(C)[nH]c(/C=C2\C(=O)Nc3ccc(F)cc32)c1C [sunitinib] + COc1cc(Nc2ncc(F)c(Nc3ccc4c(n3)NC(=O)C(C)(C)O4)n2)cc(OC)c1OC [Tamatinib] (first compound 0.4 µM, partner dose 0.4 µM) | 95 |
| C[C@]1(O)C[C@@H](c2nc(-c3ccc4ccc(-c5ccccc5)nc4c3)c3c(N)nccn32)C1 + COc1cc2c(Oc3ccc4[nH]c(C)cc4c3F)ncnc2cc1OCCCN1CCCC1 [cediranib] (first compound 0.4 µM, partner dose 0.4 µM) | 101 |
| C[C@]1(O)C[C@@H](c2nc(-c3ccc4ccc(-c5ccccc5)nc4c3)c3c(N)nccn32)C1 + COc1cc2ncnc(Nc3ccc(Oc4ccccc4)cc3)c2cc1OC [SrcI1] (first compound 0.4 µM, partner dose 2 µM) | 85.1 |
| CCN(CC)CCNC(=O)c1c(C)[nH]c(/C=C2\C(=O)Nc3ccc(F)cc32)c1C [sunitinib] + OCCn1cc(-c2cnc3nnn(Cc4ccc5ncccc5c4)c3n2)cn1 [PF04217903] (first compound 0.4 µM, partner dose 1 µM) | 104 |
| Cn1cnc2c(F)c(Nc3ccc(Br)cc3Cl)c(C(=O)NOCCO)cc21 [selumetinib] + N#Cc1c(O)c2c(-c3ccc(-c4ccccc4O)cc3)csc2[nH]c1=O [A769662] (first compound 0.015 µM, partner dose 2 µM) | 111 |
| Cn1cnc2c(F)c(Nc3ccc(Br)cc3Cl)c(C(=O)NOCCO)cc21 [selumetinib] + c1cc(-c2cnn3cc(-c4ccc(OCCN5CCCCC5)cc4)cnc23)ccn1 [Dorsomorphin] (first compound 0.015 µM, partner dose 0.4 µM) | 97.1 |
| CCN(CC)CCNC(=O)c1c(C)[nH]c(/C=C2\C(=O)Nc3ccc(F)cc32)c1C [sunitinib] + CC(C)CCN1c2nc(Nc3cc(F)c(O)c(F)c3)ncc2N(C)C(=O)C1C [BID1870] (first compound 0.4 µM, partner dose 0.2 µM) | 106 |
| COc1cc([C@@H]2c3cc4c(cc3[C@@H](O[C@@H]3O[C@@H]5CO[C@@H](C)O[C@H]5[C@H](O)[C@H]3O)[C@H]3COC(=O)[C@H]23)OCO4)cc(OC)c1O [etoposide] + COc1ccc(COc2ccc(Cc3cnc(N)nc3N)cc2OC)cc1 [GW2580] (first compound 0.02 µM, partner dose 1 µM) | 97.2 |
| Cn1cnc2c(F)c(Nc3ccc(Br)cc3Cl)c(C(=O)NOCCO)cc21 [selumetinib] + NCC(=O)Nc1ccc(-n2nc(C(F)(F)F)cc2-c2ccc3c(ccc4ccccc43)c2)cc1 [OSU03012] (first compound 0.015 µM, partner dose 1 µM) | 95.4 |
| COc1cc([C@@H]2c3cc4c(cc3[C@@H](O[C@@H]3O[C@@H]5CO[C@@H](C)O[C@H]5[C@H](O)[C@H]3O)[C@H]3COC(=O)[C@H]23)OCO4)cc(OC)c1O [etoposide] + O=C(CCCCCCC(=O)Nc1ccccc1)NO [vorinostat] (first compound 0.02 µM, partner dose 0.08 µM) | 91.3 |
| C[C@]1(O)C[C@@H](c2nc(-c3ccc4ccc(-c5ccccc5)nc4c3)c3c(N)nccn32)C1 + CO[C@@H]1[C@H](N(C)C(=O)c2ccccc2)C[C@H]2O[C@]1(C)n1c3ccccc3c3c4c(c5c6ccccc6n2c5c31)C(=O)NC4 [Midostaurin] (first compound 0.4 µM, partner dose 0.08 µM) | 92.7 |
| CCN(CC)CCNC(=O)c1c(C)[nH]c(/C=C2\C(=O)Nc3ccc(F)cc32)c1C [sunitinib] + C[C@@H]1CCN(C(=O)CC#N)C[C@@H]1N(C)c1ncnc2[nH]ccc12 [CP690550] (first compound 0.4 µM, partner dose 1 µM) | 122 |
| Cn1cnc2c(F)c(Nc3ccc(Br)cc3Cl)c(C(=O)NOCCO)cc21 [selumetinib] + CCc1ccc(CCOc2ccc(CC3SC(=O)NC3=O)cc2)nc1 [pioglitazone] (first compound 0.015 µM, partner dose 2 µM) | 90.2 |
| C[C@]1(O)C[C@@H](c2nc(-c3ccc4ccc(-c5ccccc5)nc4c3)c3c(N)nccn32)C1 + CCN(CC)CCCCNc1ncc2cc(-c3cc(OC)cc(OC)c3)c(NC(=O)NC(C)(C)C)nc2n1 [PD173074] (first compound 0.4 µM, partner dose 0.1 µM) | 102 |

— the supplement of paper PMC4604168 (melanoma cell lines)
